Results: PMC12040169 (PLOS Biology, 2025)
The other results are listed elsewhere or left out.

The molecules below were run on T1, C. trachomatis L2/434/Bu expressing GFP (CTL2-GFP). Details: total inclusion area; 28.5 h, 10 µM; inhibitor.
T1 construct: L2/434/Bu GFP intracellular growth in HeLa cells
Parameters: species or system HeLa; C. trachomatis total inclusion area by high-content imaging, normalised to DMSO
Method in brief: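 Host cell viability was gauged from Hoechst-stained nuclei counts, while chlamydial growth was taken from total inclusion area and inclusion number per well. Cells were fixed and imaged by high-content microscopy once bulk GFP and resorufin fluorescence had been measured.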
In the case of O=C1CC(C(=O)Nc2ccc(Cl)cc2)c2c(nc(SCc3ccccc3F)[nH]c2=O)N1 (centres unmarked) [CBK294437], the “% of control remaining” value is reported as 101.287. For NC(=O)C1CCN(c2ccc(-c3noc([C@@H]4CCCN4Cc4cccnc4)n3)cn2)CC1 [CBK288882], the “% of control remaining” value was 115.764. Cc1nnc([C@H]2CCN(Cc3ccc(F)cc3)C2)o1 [CBK289391] was tested, and the “% of control remaining” value was 111.197. O=C(COc1ccc(Cl)cc1)NNC(=O)c1cccnc1 [CBK261044] was tested, and the “% of control remaining” value was 101.954. For C=CCN1C(=O)CC2(C1=O)C(=O)N(CC)c1ccc(F)cc12 (centres unmarked) [CBK075316], the “% of control remaining” value was 75.4255. With Cc1c(C(=O)O)sc2nc(SCC(=O)Nc3ccc(OCc4ccccc4)cc3)[nH]c(=O)c12 [CBK296992] the “% of control remaining” value was 101.155. Cc1cc2n(n1)[C@@H](C(F)F)C[C@@H](C1CCCN(C(=O)C3CC3)C1)N2 (some centres unmarked) [CBK284723] was tested, and the “% of control remaining” value was 85.5626. In the case of CCCC(=O)N1CCCC1c1cc2n(n1)[C@@H](C(F)(F)F)C[C@@H](C)N2 (some centres unmarked) [CBK283003], the “% of control remaining” value is reported as 114.33. For COc1ccc(Cl)c(Cn2c(NCc3ccccn3)nc3c2c(=O)n(C)c(=O)n3C)c1 [CBK268965], the “% of control remaining” value was 102.967. O=C(c1ccc(F)cc1)C1CCN(Cc2cccnc2)CC1 [CBK149118] was tested, and the “% of control remaining” value was 59.5556. In the case of Cc1ncccc1C(=O)N1CCC2(CCc3ccccc3C(=O)N2)C1 (centres unmarked) [CBK283338], the “% of control remaining” value is reported as 80.327. With CN(C)C(=O)c1ccc(-c2cnc3[nH]c(=O)n(CCCN4CCOCC4)c3n2)cc1 [CBK064828] the “% of control remaining” value was 77.4858. With Cc1cnccc1N1CCN(C(=O)CCCOc2ccccc2)CC1 [CBK304677] the “% of control remaining” value was 63.6543. O=C(NC1CCCCC1)NC1CCN(Cc2nnnn2Cc2ccco2)CC1 [CBK085007] was tested, and the “% of control remaining” value was 87.6117. With CCCN1CCC(NCC(C)(C)CN(C)C)CC1 [CBK261934] the “% of control remaining” value was 99.928. COc1cc(-c2cncc(NCc3ccco3)n2)cc(OC)c1OC [CBK065259] was tested, and the “% of control remaining” value was 80.6236. For COc1ccc(-c2cc(C(F)(F)F)nc(SCC(=O)NN3CCN(C)CC3)n2)cc1 [CBK266115], the “% of control remaining” value was 82.2201. For O=C1CC(c2ccc(S(=O)(=O)NCc3ccccc3)cc2)CN1 (centres unmarked) [CBK270155], the “% of control remaining” value was 66.3636. COc1ccc(CN2CCN(c3ccc(F)cc3)CC2)cc1OCc1ccccc1 [CBK261894] was tested, and the “% of control remaining” value was 94.9476. COc1ccccc1-c1nnc2sc(-c3cnccn3)nn12 [CBK268428] was tested, and the “% of control remaining” value was 122.082. With O=C(O)CC(Cc1ccccc1)(C(=O)O)c1ccccc1 (centres unmarked) [CBK287133] the “% of control remaining” value was 92.0644. For CN1CCN(C(=O)CCc2nc(-c3ccc(Cl)cc3)no2)CC1 [CBK268304], the “% of control remaining” value was 102.175. In the case of COc1cc(CNc2cc(-c3ccc(F)c(Cl)c3)nc3ccnn23)cc(OC)c1OC [CBK037209], the “% of control remaining” value is reported as 67.0268. Cc1cc([N+](=O)[O-])nn1CCCC(=O)Nc1cccc(O)c1 [CBK268747] was tested, and the “% of control remaining” value was 92.5348. In the case of Cc1cc(C[C@@H]2COC[C@H]2NCc2ccc(Cl)c(Cl)c2)on1 [CBK285400], the “% of control remaining” value is reported as 102.517. O=C(O)c1cccc(S(=O)(=O)Nc2ccccc2C(=O)NCc2ccccc2)c1 [CBK296697] was tested, and the “% of control remaining” value was 106.934. CCCN1CCCC(c2ccccc2O)C1 (centres unmarked) [CBK024365G] was tested, and the “% of control remaining” value was 23.6079. Cc1cc(C)n2ncc(C(=O)N3CCCCC3c3ccccn3)c2n1 (centres unmarked) [CBK307257] was tested, and the “% of control remaining” value was 32.9689. In the case of CCCc1ccc(S(=O)(=O)Nc2nc(-c3cccc([N+](=O)[O-])c3)cs2)cc1 [CBK000987], the “% of control remaining” value is reported as 89.3067. For Cc1ccc(C(Cn2cncc2-c2cn(C)nc2C)N(C)C)cc1 (centres unmarked) [CBK281896], the “% of control remaining” value was 129.356. Cc1ncc2c(n1)CCCC2NC(=O)c1ccccc1Cn1cncn1 (centres unmarked) [CBK306381] was tested, and the “% of control remaining” value was 88.1725. In the case of NCCCOc1cc(N2CCCC2)ncn1 [CBK115285], the “% of control remaining” value is reported as 105.474. For CC1CCc2c(sc(NC(=O)c3nc4ncccn4n3)c2C(N)=O)C1 (centres unmarked) [CBK267631], the “% of control remaining” value was 104.69. For Cc1cc(C)cc(Oc2nccn3c(=O)[nH]nc23)c1 [CBK288451], the “% of control remaining” value was 118.807. For CC(=O)N[C@@H](Cc1c[nH]cn1)C(=O)N1CC[C@H]2NC(=O)[C@H](Cc3ccccc3)NC(=O)C3(C/C=C/C[C@H]2C1)CCOCC3 [CBK292206], the “% of control remaining” value was 101.996. With c1ccc(CC2CCN(CCc3c[nH]c4ccccc34)CC2)cc1 [CBK126385] the “% of control remaining” value was 112.82. For CC(C)Cn1c(=O)c(C(=O)Nc2cccc(Cl)c2)c(O)c2ccccc21 [CBK159967], the “% of control remaining” value was 144.022. For Cc1c(Cc2ccccc2)sc(NC(=O)c2cccnc2)c1C(N)=O [CBK269851], the “% of control remaining” value was 86.593. CC(C)(C)C1CCC(OC(=O)Cn2nnc3ccccc3c2=O)CC1 (centres unmarked) [CBK306408] was tested, and the “% of control remaining” value was 50.0729. For NC(=O)C1(N2CCCCC2)CCN(Cc2nc(O)c3ccccc3n2)CC1 [CBK265896], the “% of control remaining” value was 98.7851. For Nc1ncn(Cc2ccccc2)c2nc(SCc3ccccc3)nc1-2 [CBK025744], the “% of control remaining” value was 118.195. In the case of COc1ccc(C)cc1NC(=O)N1CCC2(CC1)CC(=O)c1ccc(C)cc1O2 [CBK166520], the “% of control remaining” value is reported as 80.6193. With N#CCCCN1CCC(Oc2nccnc2OCc2cccc(OCc3ccccc3)c2)CC1 [CBK161572] the “% of control remaining” value was 74.0748. In the case of CCCS(=O)(=O)N1CCCC(Cc2ccc(F)cc2F)(C(=O)OCC)C1 (centres unmarked) [CBK307221], the “% of control remaining” value is reported as 80.3793. With Cc1cc(-c2cc(=O)n(Cc3ccc(F)cc3)nc2C2CC2)on1 [CBK284364] the “% of control remaining” value was 61.4256. For COCc1cn([C@H]2CO[C@H]3[C@@H]2OC[C@@H]3NC(=O)Nc2ccc(OC)cc2)nn1 [CBK289495], the “% of control remaining” value was 106.314. For O=C(NCc1cccnc1-n1cccn1)c1c[nH]c(C(=O)N2CCCC2)c1 [CBK298263], the “% of control remaining” value was 101.639. COC(=O)c1ccsc1NC(=O)CN1CCN(Cc2ccc3c(c2)OCO3)CC1 [CBK267940] was tested, and the “% of control remaining” value was 101.395. For COc1ccc(C(C)NC2CCN(c3ccccn3)CC2)cc1F (centres unmarked) [CBK304146], the “% of control remaining” value was 73.3309. COC(=O)c1ccccc1OC(=O)COc1ccc(Cl)cc1Br [CBK268733] was tested, and the “% of control remaining” value was 82.5038. CCOC(=O)C1(C2CCCCC2)CCN(C(=O)c2cccc(C(F)(F)F)c2)CC1 [CBK136920] was tested, and the “% of control remaining” value was 88.265. O=C(C1CCCN(C2CCN(Cc3ccccc3)CC2)C1)N1CCN(c2ccccc2)CC1 (centres unmarked) [CBK265440G] was tested, and the “% of control remaining” value was 98.3728. For O=C(Nc1ccc2nc(-c3ccc(-c4nc5ccc(NC(=O)c6cccs6)cc5[nH]4)cc3)[nH]c2c1)c1cccs1 [CBK261590], the “% of control remaining” value was 87.4064. For O=C1CCC(=O)N1CCOc1nccnc1OC1CCN(Cc2ccc(C(F)(F)F)cc2)CC1 [CBK084341], the “% of control remaining” value was 78.8377. For CCOc1ccc(C(=O)Nc2ccc(-c3nc4cc(C)c(C)cc4o3)cc2)cc1[N+](=O)[O-] [CBK262818], the “% of control remaining” value was 107.802. For COCCSc1nnc(NS(=O)(=O)c2ccc(F)cc2)s1 [CBK144919], the “% of control remaining” value was 90.7555. With O=C1CN(C(=O)NC(c2ccccc2)c2ccccc2)CCN1 [CBK155853] the “% of control remaining” value was 106.011. In the case of O=C(CSc1nnc(-c2ccco2)[nH]1)Nc1cccc(Cl)c1 [CBK293990], the “% of control remaining” value is reported as 101.23. With CCOC(=O)c1c(N)sc(C(=O)Nc2cccc([N+](=O)[O-])c2)c1C [CBK066829] the “% of control remaining” value was 128.919. CC(Cn1cnc2ccccc21)C(=O)N1CCCCC1CN(C)C (centres unmarked) [CBK282191] was tested, and the “% of control remaining” value was 93.7507. In the case of CS(=O)(=O)Nc1cccc(C(=O)O)c1 [CBK160404], the “% of control remaining” value is reported as 81.8973. For O=c1[nH]c(=O)c2cc(S(=O)(=O)NC3(c4ccccc4)CCCC3)ccc2[nH]1 [CBK286378], the “% of control remaining” value was 99.8765. For Cc1ccccc1N1CCC(CNC(=O)CCc2ccnn2C)C1 (centres unmarked) [CBK306543], the “% of control remaining” value was 85.9985. In the case of Cc1cc(C(=O)NCCn2ccc(C)n2)c2cccc(Cl)c2n1 [CBK282549], the “% of control remaining” value is reported as 98.5765. In the case of Cc1nn(C)cc1C(=O)N1CCC2(C/C=C/CCOc3ccccc3C(=O)NCCCNC2=O)CC1 [CBK292154], the “% of control remaining” value is reported as 83.1734. For O=C1Cc2c(ccc3ccccc23)C2(CCN(CC3CCCCO3)CC2)N1 (centres unmarked) [CBK039395], the “% of control remaining” value was 89.8266. With N/C(=N\C(=O)CN1C(=O)C2CCCCC2C1=O)Nc1nc2ccccc2s1 (centres unmarked) [CBK263877] the “% of control remaining” value was 85.7782. For O=C(c1ccccc1)c1nnsc1-c1ccccc1 [CBK008193], the “% of control remaining” value was 43.0971. In the case of C#CCNC(=O)c1nn(Cc2ccc(S(=O)(=O)N(C)OC)cc2)c2ccccc12 [CBK047985], the “% of control remaining” value is reported as 90.4174. With COc1ccccc1C1OC(=O)CC1C(=O)N1CCN(c2ccc(C(F)(F)F)cc2)CC1 (centres unmarked) [CBK091313] the “% of control remaining” value was 109.169. Cn1c(CNc2ccc(C(=O)O)cc2)nc2ccccc21 [CBK262501] was tested, and the “% of control remaining” value was 101.286. For O=C1COc2ccccc2C/C=C/C[C@H]2CN(C(=O)c3noc4c3CCCC4)CC[C@H]2N1 [CBK292099], the “% of control remaining” value was 103.757. Cc1nc2ccccc2c(C)c1CC(=O)N(C)Cc1cnn(C)c1 [CBK304895] was tested, and the “% of control remaining” value was 87.2522. For CC(=O)N1CCC2(CCCC[C@H]3CN(Cc4coc(C)n4)CC[C@@H]3NC(=O)CNC2=O)CC1 [CBK292165], the “% of control remaining” value was 103.812. With COC(=O)c1cccc2c1ncc1c(=O)nc(N)sc12 [CBK291214] the “% of control remaining” value was 96.9475. With NS(=O)(=O)c1ccc(NC(=O)CSc2ccc3ccccc3c2)cc1 [CBK268203] the “% of control remaining” value was 88.2618. O=P(O)(CN1CCCCCC1)CN1CCCCCC1 [CBK262311] was tested, and the “% of control remaining” value was 89.878.
